Data as given in article PMC4336329 (PLoS ONE, 2015).
Out of some 310,000 compounds screened, about 14,000 (4.5%) showed an effect of 50% or more. The effect is printed as a negative number. The list shows a part of the results.

Biological target: human ether-à-go-go-related gene (hERG) potassium channel (human, UniProt Q12809)
Experiment: primary screen, population patch clamp on CHO cells stably expressing hERG
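Further: peak tail current of the secondary pulse compared with the same well before compound.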

Chain of human ether-à-go-go-related gene (hERG) potassium channel (Q12809 whole entry, looked up): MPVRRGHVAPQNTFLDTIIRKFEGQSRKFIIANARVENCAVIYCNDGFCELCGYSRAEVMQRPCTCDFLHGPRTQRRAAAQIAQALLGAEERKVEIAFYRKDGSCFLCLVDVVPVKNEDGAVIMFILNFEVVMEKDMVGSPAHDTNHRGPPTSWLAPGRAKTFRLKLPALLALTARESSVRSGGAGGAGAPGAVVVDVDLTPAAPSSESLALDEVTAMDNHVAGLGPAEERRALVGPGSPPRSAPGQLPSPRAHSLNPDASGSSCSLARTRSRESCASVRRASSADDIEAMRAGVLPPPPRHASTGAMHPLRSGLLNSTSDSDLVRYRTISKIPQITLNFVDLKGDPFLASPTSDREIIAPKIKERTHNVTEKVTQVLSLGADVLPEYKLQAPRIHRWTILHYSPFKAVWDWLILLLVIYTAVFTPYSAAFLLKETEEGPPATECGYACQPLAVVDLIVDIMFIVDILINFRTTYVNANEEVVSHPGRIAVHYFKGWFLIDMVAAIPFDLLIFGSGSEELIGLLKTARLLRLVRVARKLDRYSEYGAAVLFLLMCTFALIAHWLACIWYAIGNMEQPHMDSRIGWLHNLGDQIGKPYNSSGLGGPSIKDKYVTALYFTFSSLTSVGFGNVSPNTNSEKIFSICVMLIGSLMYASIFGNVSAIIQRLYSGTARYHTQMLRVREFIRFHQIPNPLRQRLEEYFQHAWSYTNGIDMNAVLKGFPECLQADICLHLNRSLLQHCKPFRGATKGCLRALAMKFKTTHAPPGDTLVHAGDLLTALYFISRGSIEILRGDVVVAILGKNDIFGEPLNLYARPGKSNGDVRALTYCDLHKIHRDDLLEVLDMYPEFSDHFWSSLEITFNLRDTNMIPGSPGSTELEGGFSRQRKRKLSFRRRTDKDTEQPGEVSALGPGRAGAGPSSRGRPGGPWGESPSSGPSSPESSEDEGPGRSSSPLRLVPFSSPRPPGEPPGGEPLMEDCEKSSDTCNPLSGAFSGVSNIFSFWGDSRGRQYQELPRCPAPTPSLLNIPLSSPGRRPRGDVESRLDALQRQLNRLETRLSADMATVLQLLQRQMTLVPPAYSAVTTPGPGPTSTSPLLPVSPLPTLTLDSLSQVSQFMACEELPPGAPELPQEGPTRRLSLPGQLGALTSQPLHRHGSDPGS

Row | SMILES | hERG current change (%, negative = inhibition) at 10uM [%]
1 | Cn1c(=O)c2c(nc(N3CCN(Cc4ccccc4)CC3)n2CC(=O)c2ccccc2)n(C)c1=O | -17.8
2 | O=C(Nc1ccc(F)cc1)c1ccccc1 | -7.59
3 | Cc1c(-n2c(O)c(C3=c4ccccc4=NC3=O)sc2=O)c(=O)n(-c2ccccc2)n1C | -32.7
4 | CCN1CCN(C(c2ccc(C(F)(F)F)cc2)c2ccc3cccnc3c2O)CC1 (centres unmarked) | -25.3
5 | Cc1cc(C(=O)Nc2cccc3ccccc23)c(C)o1 | 4.69
6 | CNC(=S)N/N=C1\CC(c2ccccc2)Oc2ccccc21 (centres unmarked) | 7.45
7 | Cc1ccc(S(=O)(=O)NCC(=O)OCC(=O)Nc2cccc(S(=O)(=O)NC3=NCCCCC3)c2)cc1 | 20.5
8 | COCCNC(=O)c1ccc(C2SCC(=O)N2Cc2ccco2)cc1 (centres unmarked) | 11.2
9 | Cc1oc(-c2ccc(Cl)cc2)cc1C(=O)NC1CCN(Cc2ccccc2)CC1 | 1.09
10 | CCNc1nc(NCC)nc(N(CC)C(N)=S)n1 | -11.3
11 | Cc1ccc(CN(C(=O)COc2ccc(C)c(C)c2)C2CCS(=O)(=O)C2)o1 (centres unmarked) | -53.6
12 | CC(=O)c1c(C(C)=O)c(C)n(-c2nc(-c3cccs3)c(C)s2)c1C | 18.7
13 | Nc1nccc(-c2cc(-c3ccc(Cl)cc3Cl)no2)n1 | 12.9
14 | COc1cc(CC(=O)Nc2ccc3nc(C)sc3c2)cc(OC)c1OC | 2.73
15 | Cc1noc(C)c1C(=O)Nc1ccc(Cl)cc1C(F)(F)F | -0.387
16 | O=C(CN1CCOCC1)N/N=C/C(Br)=C\c1ccccc1 | 5.63
17 | COc1cc(OC)cc(OCC(O)Cn2cnc3cc(C)c(C)cc32)c1 (centres unmarked) | -12
18 | CC(=O)N1CCN(C(=S)NC(=O)C23CC4CC(CC(C4)C2)C3)CC1 | 40.4
19 | C=CCNC(=O)C1CCC(CNc2nc(=S)[nH]c3ccccc23)CC1 (centres unmarked) | 16.7
20 | COc1cc(C(=O)/C=C/Nc2ccc(NC(C)=O)cc2)cc(OC)c1OC | -26.3
21 | Cc1ccc(NC(=O)CSCC(=O)Nc2nnc(C3CC3)s2)cc1 | 6.1
22 | Cc1cc2[nH]ncc2cc1NC(N)=S | 26.1
23 | O=C(CSc1nc(-c2ccccc2)cc(=O)[nH]1)Nc1ccccc1 | 18

Row | SMILES | hERG current change (%, negative = inhibition) at 10uM [%]
24 | COc1ccccc1CN1CC(C(=O)NCc2cc(F)cc(C(F)(F)F)c2)CCC1=O (centres unmarked) | -20.1
25 | Nc1nonc1-n1nnc(C(=O)N/N=C/c2ccoc2)c1CSc1ccc(Cl)cc1 | 13.3
26 | CSc1ncccc1C(=O)Nc1nc2ccc(F)cc2s1 | 42.3
27 | Nc1nc(Nc2ccccc2)nc(N2CCCC2)c1[N+](=O)[O-] | -34.5
28 | COc1cccc(C(=O)Nc2ccc(F)c(F)c2F)c1 | -10
29 | CC(NS(=O)(=O)c1ccccc1)C1CC2CCC1C2 (centres unmarked) | -26.6
30 | N#CC1(NC(=O)COC(=O)C2=COCCO2)CCCCC1 | 8.63
31 | C=CCn1c(-c2ccccc2)nc2nc3ccccc3nc21 | -3.49
32 | c1ccc(-c2ncc(-c3ccn[nH]3)s2)cc1 | 8.93
33 | CC1(C)CC(=O)C(C=Nc2cc(C(=O)c3ccccc3)ccc2N)=C(O)C1 | -36
34 | COCCCn1c(=O)c2ccccc2n(CC(=O)N2CCCc3ccccc32)c1=O | -22.8
35 | O=C1NC(=O)N(CCC2=CCCCC2)C(=O)/C1=C/c1ccc(O)cc1 | -3.45
36 | O=C(N/C=N/OCc1ccc(Cl)cc1Cl)NOCc1c(Cl)cccc1Cl | 0.299
37 | CCc1nnc(NC(=O)CCC(=O)NCCc2ccccc2)s1 | 19
38 | CCN(C(=O)COC(=O)c1nn(-c2ccccc2)c(=O)c2ccccc12)C1CCS(=O)(=O)C1 (centres unmarked) | -30.2
39 | COc1cccc(OC)c1C(=O)Nc1nc(COc2ccccc2)cs1 | 18.4
40 | Cc1cc(-c2ccccc2)nc(N/N=C/c2ccccc2F)n1 | 0.271
41 | CC(C)Cn1cc(F)c(=O)n(CC(C)C)c1=O | 22.9
42 | O=C(Cc1ccc([N+](=O)[O-])cc1)N1CCCc2ccccc21 | -41.1
43 | COc1cccc(NC(=O)CSc2nnc(Cn3cnc([N+](=O)[O-])n3)n2C)c1 | -6.71
44 | C(=C\c1ccccc1)/CN1CCN(c2ncnc3c2oc2ccccc23)CC1 | -53.7
45 | Cc1cc(NC(=O)NC(C)(C(F)(F)F)C(F)(F)F)no1 | 2.83
46 | Cc1oc(-c2ccc(Cl)cc2)nc1CN1CCCC(C(=O)NCc2cccnc2)C1 (centres unmarked) | -60.8

Row | SMILES | hERG current change (%, negative = inhibition) at 10uM [%]
47 | COc1cc(/C=N/n2cnnc2)ccc1OCCSc1ccc(C)cc1 | -5.6
48 | CN(C(=O)c1ccc2nccnc2c1)C1CCCCC1 | 11.3
49 | C=C(C)COc1ccc(-c2nc(N)ncc2-c2ccc(Br)cc2)c(O)c1 | 23.6
50 | CC1=C(C(=O)OC(C)C)C(c2ccncc2)n2ncnc2N1 (centres unmarked) | 0.568
51 | COc1ccccc1/C=C/C(C)=O | 13.6
52 | CCOC(=O)c1[nH]c(COC(=O)C2CC(=O)N(Cc3ccccc3)C2)c(C(=O)OCC)c1C (centres unmarked) | -17.2
53 | O=C(O)c1cc2nc(-c3ccccc3)cc(-c3ccccc3)n2n1 | 6.39
54 | COc1ccc(/C=N/NC(=O)Cc2cc(OC)c(OC)cc2[N+](=O)[O-])cc1 | 6.28
55 | O=C(O)c1ccc(NS(=O)(=O)c2ccc(Cl)c(C(=O)Nc3ccccc3)c2)cc1 | 8.01
56 | Cc1ccc(S(=O)(=O)NNC(=S)Nc2cccc(C)c2C)cc1 | -27.7
57 | CCOC(=O)CN(C(=O)CSc1nnc(-c2ccncc2)n1CCCOC)c1ccccc1 | 9.85
58 | Cc1cc(C)n(-c2cc(C(C)(C)C)nc3c(-c4ccc(Cl)cc4)cnn23)n1 | 2.2
59 | Cc1[nH]c2ccc(C(=O)NC3CCCC3)cc2c1C | 4.71
60 | CCn1cc(C(=O)NCC2CCCO2)c(=O)c2cc(F)c(N3CCN(C)CC3)cc21 (centres unmarked) | 11.6
61 | O=C(COc1ccc(S(=O)(=O)NCc2ccccc2)cc1)N1CCOCC1 | -6.06
62 | Cc1ccc(NC(=O)Cc2cn3ccsc3n2)nc1 | 14.3
63 | O=C(NNC(=O)C1CCN(S(=O)(=O)c2ccc(Cl)cc2)CC1)c1ccccc1 | 9.96
64 | O=C(Nc1nc(-c2ccccn2)cs1)c1cccc(-n2cnnn2)c1 | -5.61
65 | COc1ccc(S(=O)(=O)N2CCOCC2)cc1NC(=O)CSc1nnc2ccccn12 | 5.54
66 | O=C(O)/C=C/c1ccc(S(=O)(=O)Nc2ccc(C(=O)NCC(=O)O)cc2)cc1 | 2.62
67 | C=CCc1cccc(CNc2c(C)n(C)n(-c3ccccc3)c2=O)c1O | -0.383
68 | CCCn1c2ccccc2c2cnn(CC(=O)NC3CCC(C)CC3)c(=O)c21 (centres unmarked) | 9.11
69 | Cn1c(SCC(=O)NCc2ccco2)nnc1-c1ccccc1 | -2.54

Row | SMILES | hERG current change (%, negative = inhibition) at 10uM [%]
70 | Cc1nc2c3ccccc3nc(NNC(=O)CCC(=O)NCCN3CCN(c4ccccc4)CC3)n2n1 | 7.42
71 | CCC(C(=O)Nc1cccc(C(=O)O)c1C)c1ccccc1 (centres unmarked) | 7.82
72 | CCC(C)(C)NC(=O)C(c1cccs1)N(C(=O)c1ccn[nH]1)c1cccc(OC)c1 (centres unmarked) | -38.5
73 | O=C(NCC1CCOCC1)c1ccc2nc(Cc3cccc(Cl)c3)oc2c1 | -12.8
74 | CN(C)S(=O)(=O)c1ccc(NC(=O)c2ccc([N+](=O)[O-])cc2)cc1 | 4.59
75 | Cc1ccc(NC(=O)CCC(=O)N/N=C/c2coc3ccccc3c2=O)cc1 | 0.733
76 | COc1cc2c(cc1OC)CN(C(=O)c1cc(C3CC3)nn1-c1ccccc1)CC2 | -56.2
77 | CCCn1c(SCC(=O)N2CCCCC2)nnc1-c1ccccn1 | 2.6
78 | C/C=C/C(=O)NCCc1ccc(OC)c(OC)c1 | 16.9
79 | CCC(CC)C(=O)NCCN1CCN(C(=O)C(CC)CC)CC1 | 14.4
80 | COc1ccc(CCC(=O)Nc2ccccc2C(F)(F)F)cc1 | 1.9
81 | O=C(Nc1ccc(Br)cc1)c1ccc(-n2cnnn2)cc1 | 13.2
82 | S=C(NC1CCCCC1)N(CCc1nc2ccccc2[nH]1)C1CCCC1 | 4.83
83 | Cc1cc(C)cc(NC(=S)NCc2ccncc2)c1 | -4.58
84 | CCN(CC)CC(=O)Nc1ccc(Cl)cc1C(=O)c1ccccc1 | -21.2
85 | O=C(O)c1ccc(NS(=O)(=O)c2ccc(Cl)cc2)cc1 | 0.513
86 | CCSC1=C(C#N)C(c2ccccc2Cl)CC(=O)N1 (centres unmarked) | 3.95
87 | CN(Cc1nccn1C)C(=O)CC1C(=O)NCCN1Cc1ccccc1C(F)(F)F (centres unmarked) | 17.7
88 | CC(C)(C)c1ccccc1NC(=O)c1ccc(-n2cncn2)c([N+](=O)[O-])c1 | -2.44
89 | C(=C\c1ccccc1)/C=N/N1CCN(c2ccccn2)CC1 | -1.04
